Test results published in the RNAGym collection of RNA variant scans (doi:10.7554/elife.90254).
Read counts are not given, so values of variants with three or more changes are uncertain.

B1: LINE1-mini (parent)
chain: GGCAGAGCUCAACACAGCGUGGCAAAGUGGCUGUGGCUAGACUGCC

Variants of: B1
Test: self-cleavage, relative activity (ratio to wild type); higher = more cleavage; in vitro, sequencing; the parent is a self-cleaving ribozyme

| Variant | self-cleavage |
| --- | --- |
| GGCAGUGCUAAGCACAGCAUGCCAAAGUGGCUGUGGCUAGACUGCC [A6U C10A A12G G19A G22C] | 0.01 |
| GGCAGAGCUGAACACAGCGUGGCAAAGUAGCUAUGGCUAGAAUGUA [C10G G29A G33A C42A C45U C46A] | 0.01 |
| GGCAGAGCUCAACCCGGCGUGGCAAAGUGGCUAUUGCUAGACUGCC [A14C A16G G33A G35U] | 0.06 |
| GGCAGAGCUCAACACAGCAUGGCAAAGUGGCUGUAGCUCGACUGUC [G19A G35A A39C C45U] | 0.06 |
| GCCAGAGCUAAACACAGCGAGGCAAAGUGGCUGUGGCUGGACUGCA [G2C C10A U20A A39G C46A] | 0 |
| GUCACAUCUCAACACAGCGAGGCAAAGUGGCUGUGGCUAGACUGCC [G2U G5C G7U U20A] | 0.02 |
| GGCAGAGCUCAACACAGCGCCGCAAAGUGGCUGUGGCUAGACUGGA [U20C G21C C45G C46A] | 0.26 |
| GGCAGAGCACAACACAGCAUGGCAUAGUGGCUGUGGCUAGACUGCC [U9A G19A A25U] | 0.24 |
| GGCAGAGCUCAACACAGCGUGGAAAAGAGUCUGUGGCUAGACUGCC [C23A U28A G30U] | 0.38 |
| GGCAGAGCUCAACACAGCGAGGUAAUGAGGCUGUGGCUAGAUUGCG [U20A C23U A26U U28A C42U C46G] | 0.02 |
| GGCAGAGCUCAUCACAUCGUGGCAAAGUGGCUGUGGCUAUACUGCC [A12U G17U G40U] | 0.06 |
| GGCAGAGCUCGACAAAGCGGGGCAAAAUGGCUGUGGCUGGACUGCC [A11G C15A U20G G27A A39G] | 0.01 |
| GGCAGAGAUCAACACUGCGUGGCAAAGUGGCUGUGGCUACACUGCC [C8A A16U G40C] | 0.11 |
| GGCAGAGCGCAACACAGCGAGGCAUAGUGGCUGUGGCUAGACUGCC [U9G U20A A25U] | 0.03 |
| GGCAGAGCUCAACUCAGCGUGGCAAAGUGGCUGUCGCUAGAUUGCC [A14U G35C C42U] | 0.16 |
| GAAAGAGUUCAACACAGCGUGGCAAAGUGGCUGUGGCUAGAAUGCC [G2A C3A C8U C42A] | 0.62 |
| CGCACAGCUCAACACAGCGUGGCAAAGCGGCUGUGGCUAUACUUCC [G1C G5C U28C G40U G44U] | 0 |
| GGAUGAGCUCAACUCAGCGAGGCCAAGUUGUUGUGGCAAGACUGCC [C3A A4U A14U U20A A24C G29U C31U U38A] | 0.03 |
| GCCAGAGCUCAACUCAGCGUGGCAAACUGGCUGUGGCUAGAUUGCC [G2C A14U G27C C42U] | 0.01 |

| Variant | self-cleavage |
| --- | --- |
| CGUAGAGCUUAACACAGCGUGGCAAAGUGGCUGUGGAUAGACUGCG [G1C C3U C10U C37A C46G] | 0.01 |
| GGCAGAGAUCAUCACGGCGUGGCAGAGUGGCUGUGGCUCGACUGCC [C8A A12U A16G A25G A39C] | 0.08 |
| GGCAGCGCUCAACACAGCGUGGCAAAGUGGCUGUUGCUAGACUGAC [A6C G35U C45A] | 0.02 |
| GGCAUAGCUCAACACAGCGUUGCAAAGCGGCUGUGGCUAGACUGCC [G5U G21U U28C] | 0.07 |
| GGCAGAGCUCAACACAGCGUGGCAAAGUGGCUGUGGUAUGACUUCC [C37U U38A A39U G44U] | 0.05 |
| AGCAGAGCUCAACAAAGCGUGGCAAAGUGGCUGUGGGUAGACUGCC [G1A C15A C37G] | 0.08 |
| GGCAGAGUUCACCACAACGUGGCAAAGUGGCUGUGGCUUGACUGCC [C8U A12C G17A A39U] | 0.02 |
| GGCAGAGCUCAACACAGCGAGGCAAAGUGGCUGUGGCUAGAGUCCC [U20A C42G G44C] | 0.05 |
| GUCGGAGCUCAACACAGCUUUGCAUAUUGGCUGUGGAUAGAGGGCC [G2U A4G G19U G21U A25U G27U C37A C42G U43G] | 0 |
| GGCAGAGGUCAACACAGCGUGGCAAAGUGGCUGUGCCUAGACUGCU [C8G G36C C46U] | 0.33 |
| GGCAGAUCCCAACACAGCGUGGCUAAGUGGCUGUGGGUAGACUACC [G7U U9C A24U C37G G44A] | 0.02 |
| GGCCGUGCUCAACACAGCGUGGCAAAGUGGCUGGGGCUAGACUGCC [A4C A6U U34G] | 0 |
| GGCAGAGCUCCACACAGUGUGGCAAAGUGGCUGUGGCUACACUGCC [A11C C18U G40C] | 0.03 |
| GGCAGAGCUCAACACUGCGUGCCAAAGUGGCUAUGGCUAGAGAGCC [A16U G22C G33A C42G U43A] | 0.09 |
| GGCAUAUCUCAACACAGCGUGGCAAAGUGGCUGAUACUAUACUGCC [G5U G7U U34A G35U G36A G40U] | 0.09 |
| GCCAGAGCUCAACACAGCGUGGCAAAGUGGUUGUGGCUAGACUUCC [G2C C31U G44U] | 0.02 |
| GGCAGAGGUCAACAAAGCGUGGCAAAGUGGCUGUGGCUAGACUGGC [C8G C15A C45G] | 0.08 |
| AGCAGAGCUCCACACAGCGUGGCAAAGUGGCUGUGGUUAGACUGCC [G1A A11C C37U] | 0.01 |
| GGCAGAGCUCAAAACAGUGUGUAAAAGCGGCUGUGGCCAGACUGCC [C13A C18U G22U C23A U28C U38C] | 0.06 |

| Variant | self-cleavage |
| --- | --- |
| GGCAGUGCUCAACACAGCGUGGCAAAGUGGCUGUGGCUCGACUGUC [A6U A39C C45U] | 0.32 |
| GGCAGAGCUCAACACAGCGAGGCACAGUCGCUGUGGCUAGACUGCC [U20A A25C G29C] | 1.51 |
| GGCAGAACUCAACACAGCGUCGAAAAGUGGUCGGGUCUAGACUGCC [G7A G21C C23A C31U U32C U34G G36U] | 0.14 |
| GGCAGCGCUCAACACAGCGUGUCAAAGUGGCCUUGGCUAGACUGCC [A6C G22U U32C G33U] | 0.03 |
| GGCAGAGCUCAACAAAGCGUGGCAAUGUGGCUGUGUGUAGACUGCC [C15A A26U G36U C37G] | 0.03 |
| GGCAGAGCUCUAUACAGCGUGGCAAAGUGGCUGUGGUUAGACUGCC [A11U C13U C37U] | 0.01 |
| GGCAGAGCUCAACAAAGCGUGGCAAAAUGUCUGUGGCUAGAGUGCC [C15A G27A G30U C42G] | 0.05 |
| GGCAGCGCUCAAUACAGCGUGAUAAAGUGGCUGUGGCUAUACUGCC [A6C C13U G22A C23U G40U] | 0.2 |
| GGCAGAGGUCAACGCAGCGCGGCAAAGUGGCUGUGGCUAGUUUGCC [C8G A14G U20C A41U C42U] | 0.09 |
| GGCAGGGCUAAACACAGCGUGGCUAAGUGGCUGUGGCUAGACUGCC [A6G C10A A24U] | 0.03 |
| GGCAAAGCUCAACACAGCGUAGCAAAGUGGCUGUGGCUAGCAUGCC [G5A G21A A41C C42A] | 0.05 |
| GGCAGAGCUCAAGACAGCGGGGCAAAGUGGCUGUGGCUAGCCUCCC [C13G U20G A41C G44C] | 0.05 |
| GGCACAGCUCACCACAGCGUGACAAAGUGGCUGUGGCUAGACUGCC [G5C A12C G22A] | 0.04 |
| GGCAGAGUUCAAUACAGCGUGGCAAAGUGGCUGUGCCUAGACUGCC [C8U C13U G36C] | 0.07 |
| GGAAGCGCUCAACACAGCGUGGCAAAGUAGCUGUGGCUAGACGGCC [C3A A6C G29A U43G] | 0.02 |
| GGCAGAGCUCAACACAGGGUGCCAAAGUGGUUGUGGCUAGACUGCC [C18G G22C C31U] | 0.06 |
| GGAAGACCUCAACAAAGCGUGGCAAAGUGGUUGUGGCUAGACUGCC [C3A G7C C15A C31U] | 0.06 |
| GGCAGAGCUCAAAACAGCCUGGCAAAGUGGCUGUGGUUAGACUGCG [C13A G19C C37U C46G] | 0.01 |
